Some of the results follow. Single values are uncertain, as repeats are few or missing.
What was measured:
Test in all cases: cell count relative to DMSO control; melanoma cells; higher = more viable cells
Conditions in all cases: library dose: low library concentration; 72 h
WM115 = tested on: WM115
WM1716 = tested on: WM1716
WM1745 = tested on: WM1745
WM3526 = tested on: WM3526
WM3619 = tested on: WM3619
WM451Lu = tested on: WM451Lu
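Also: cell number obtained by counting DAPI-stained nuclei in high-throughput microscope images with image analysis software, screen run in 1,536-well plates.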

SMILES | cell count (WM115) [%] | cell count (WM1716) [%] | cell count (WM1745) [%] | cell count (WM3526) [%] | cell count (WM3619) [%] | cell count (WM451Lu) [%]
Clc1ccc(Nc2nnc(Cc3ccncc3)c3ccccc23)cc1 [vatalanib] + Cn1cncc1[C@@](N)(c1ccc(Cl)cc1)c1ccc2c(c1)c(-c1cccc(Cl)c1)cc(=O)n2C [tipifarnib] (first compound 2 µM, partner dose 0.01 µM) | 82.6 | 70.5 | 84.7 | 77.7 | 89.6 | 91.5
COCC[n+]1c2c(n(Cc3cnccn3)c1C)C(=O)c1ccccc1C2=O + COc1cc(N2CCC(N3CCN(C)CC3)CC2)ccc1Nc1ncc(Cl)c(Nc2ccccc2S(=O)(=O)C(C)C)n1 [NVP-TAE684] (first compound 0.0004 µM, partner dose 0.08 µM) | 86.2 | 80.1 | 104 | 88.2 | 104 | 64
Cn1c(Nc2ccc(C(F)(F)F)cc2)nc2cc(Oc3ccnc(-c4ncc(C(F)(F)F)[nH]4)c3)ccc21 + COc1cc2c(Oc3ccc4[nH]c(C)cc4c3F)ncnc2cc1OCCCN1CCCC1 [cediranib] (first compound 0.08 µM, partner dose 0.4 µM) | 62.3 | 81.9 | 65.5 | 54.8 | 60.5 | 85.2
OCc1c[nH]c2ccccc12 [Indole-3-carbinol] + COc1cc2c(Oc3ccc4[nH]c(C)cc4c3F)ncnc2cc1OCCCN1CCCC1 [cediranib] (first compound 0.8 µM, partner dose 0.4 µM) | 108 | 108 | 83.5 | 102 | 104 | 92
OCc1c[nH]c2ccccc12 [Indole-3-carbinol] + CCN(CC)CCCCNc1ncc2cc(-c3cc(OC)cc(OC)c3)c(NC(=O)NC(C)(C)C)nc2n1 [PD173074] (first compound 0.8 µM, partner dose 0.1 µM) | 105 | 114 | 95.8 | 93.3 | 109 | 94.8

From the supplement of paper PMC4604168 (melanoma cell lines)
